For 26 compounds, cytotoxicity call and growth inhibition call results are on record in the antibiotic and cytotoxicity screens of Wong et al. (2023).

This is one part of the list.

The subject of one test is HSkMC. The test can be described thus: cytotoxicity call (relative viability < 0.9). To be noted: 10 µM.
The subject of a further test is HepG2. Briefly: cytotoxicity call (relative viability < 0.9). To be noted: 10 µM.
For another test, the system named is S. aureus RN4220. The test can be described thus: growth inhibition call (relative growth <= 0.2). To be noted: 50 µM.

Regarding `CC(C)NC(=O)Nc1ccc2c(c1)CC(=O)N([C@@H](C)CO)C[C@@H](C)[C@H](CN(C)S(=O)(=O)c1ccccc1)O2`, the cytotoxicity call in the test with HSkMC and in the test on HepG2 was “inactive” in each case. Besides, in the test on S. aureus RN4220, the growth inhibition call was “inactive”.
`COc1cccc(C(=O)Nc2ccc3c(c2)C(=O)N(C)[C@H]2CC[C@H](CC(=O)NCC4CC4)O[C@H]2CO3)c1`: the cytotoxicity call with HSkMC and in the test with HepG2 was “inactive” each time. The growth inhibition call in the test with S. aureus RN4220 is “inactive”.
Consider `C[C@H](CO)N1C[C@H](C)[C@@H](CN(C)C(=O)NC2CCCCC2)Oc2c(NC(=O)Nc3ccc(C(F)(F)F)cc3)cccc2C1=O`, for which, in the test on HSkMC, the cytotoxicity call was “inactive”. Also, the cytotoxicity call with HepG2 was “active”. For the same compound, the growth inhibition call in the test with S. aureus RN4220 is “inactive”.
For the compound `Cn1cnc(CO)n1`, the cytotoxicity call in the test on HSkMC and with HepG2 was “inactive” each time. Moreover, the growth inhibition call in the test with S. aureus RN4220 was “inactive”.
Regarding `CC(C)NC(=O)N(C)C[C@@H]1OCCCC[C@@H](C)Oc2ccc(NC(=O)Nc3cccc4ccccc34)cc2C(=O)N([C@H](C)CO)C[C@@H]1C`, the cytotoxicity call with HSkMC and with HepG2 was “inactive” each time. Further, the growth inhibition call in the test with S. aureus RN4220 is “inactive”.
In the case of `COc1ccc(S(=O)(=O)Nc2ccc3c(c2)C(=O)N([C@H](C)CO)C[C@H](C)[C@H](CN(C)C(=O)Nc2ccccc2)OCCCC[C@H](C)O3)cc1`, the cytotoxicity call in the test with HSkMC and with HepG2 was “inactive” each time. Moreover, the growth inhibition call in the test with S. aureus RN4220 was “inactive”.
On to `COc1cccc(NC(=O)N(C)C[C@H]2OCc3ccccc3-c3c(n(C)c4ccccc34)C(=O)N([C@@H](C)CO)C[C@H]2C)c1`, for which the cytotoxicity call in the test with HSkMC and in the test with HepG2 was “inactive” in each case. In addition, the growth inhibition call with S. aureus RN4220 was “inactive”.
As to `C[C@@H]1CCCCO[C@@H](CN(C)S(=O)(=O)c2cccs2)[C@@H](C)CN([C@H](C)CO)C(=O)c2cc(NC(=O)Nc3ccc(F)cc3)ccc2O1`, the cytotoxicity call with HSkMC and in the test on HepG2 was “inactive” in each case. Also, the growth inhibition call in the test with S. aureus RN4220 is “inactive”.
As for `C[C@@H]1CCCCO[C@@H](CN(C)C(=O)c2ccncc2)[C@@H](C)CN([C@H](C)CO)C(=O)c2cc(NC(=O)CCCCCC(=O)Nc3ccccc3N)ccc2O1`, the cytotoxicity call in the test on HSkMC and in the test with HepG2 was “inactive” throughout. Moreover, in the test with S. aureus RN4220, the growth inhibition call was “inactive”.
With `CC(C)NC(=O)Nc1ccc2c(c1)C(=O)N([C@@H](C)CO)C[C@H](C)[C@H](CN(C)Cc1ccc(Cl)c(Cl)c1)OCCCC[C@@H](C)O2`, the cytotoxicity call in the test on HSkMC and with HepG2 was “inactive” in each case. Besides, in the test with S. aureus RN4220, the growth inhibition call was “inactive”.
On to `Cc1ccc(S[C@]2(C(=O)NCC(C)C)CC(=O)N(C3Cc4ccccc4C3)[C@@H]2c2ccc(CO)cc2I)cc1`, for which the cytotoxicity call in the test on HSkMC and with HepG2 was “inactive” each time. Moreover, the growth inhibition call with S. aureus RN4220 is “inactive”.
On to `Cc1cc(C)n2nc(N)nc2n1`, for which the cytotoxicity call in the test on HSkMC and in the test on HepG2 was “inactive” each time. The growth inhibition call in the test with S. aureus RN4220 is “inactive”.
Consider `CO[C@H]1O[C@H](CO)[C@@H](OC(=O)c2ccc(Br)cc2)[C@@H]2OC(=O)[C@H](Cc3ccccc3)C/C=C/C[C@@H](Cc3ccccc3)C(=O)O[C@@H]12`, for which the cytotoxicity call in the test with HSkMC and with HepG2 was “inactive” throughout. Moreover, the growth inhibition call in the test on S. aureus RN4220 is “inactive”.
Take `C[C@@H]1CCCCO[C@@H](CN(C)S(=O)(=O)c2cccs2)[C@@H](C)CN([C@H](C)CO)C(=O)c2cc(NS(=O)(=O)c3cn(C)cn3)ccc2O1`: the cytotoxicity call with HSkMC and in the test with HepG2 was “inactive” in each case. For the same compound, the growth inhibition call in the test on S. aureus RN4220 was “inactive”.
For `C/C(=C\CC[C@@H](C)[C@H]1C[C@@H](O)[C@@]2(C)[C@H]3CC[C@H]4C(C)(C)[C@@H](O[C@@H]5O[C@@H](CO[C@H]6OC[C@@H](O)[C@@H](O)[C@@H]6O)[C@@H](O)[C@@H](O)[C@@H]5O)CC[C@@]45C[C@@]35C[C@@H](O)[C@]12C)C(=O)O[C@H]1O[C@@H](CO)[C@@H](O)[C@@H](O)[C@@H]1O`, the cytotoxicity call with HSkMC and in the test with HepG2 was “inactive” throughout. For the same compound, in the test with S. aureus RN4220, the growth inhibition call was “inactive”.
`C[C@@H]1CN([C@H](C)CO)C(=O)c2cc(NS(=O)(=O)c3cccs3)ccc2O[C@@H](C)CCCCO[C@@H]1CN(C)S(C)(=O)=O`: the cytotoxicity call with HSkMC and in the test on HepG2 was “inactive” throughout. Also, the growth inhibition call in the test on S. aureus RN4220 was “inactive”.
As to `C[C@@H]1CCCCO[C@H](CN(C)S(=O)(=O)c2cccs2)[C@H](C)CN([C@H](C)CO)C(=O)c2cc(NC(=O)C3CCCCC3)ccc2O1`, the cytotoxicity call with HSkMC and in the test with HepG2 was “inactive” throughout. Also, the growth inhibition call with S. aureus RN4220 was “inactive”.
Turning to `C[C@H]1CCCCO[C@@H](CN(C)CC2CCCCC2)[C@@H](C)CN([C@@H](C)CO)C(=O)c2cc(NS(=O)(=O)c3ccc(F)cc3)ccc2O1`, the cytotoxicity call in the test with HSkMC and in the test with HepG2 was “inactive” throughout. In addition, the growth inhibition call in the test with S. aureus RN4220 is “inactive”.
`N[C@@H](CSCc1cccc(Br)c1)C(=O)O`: the cytotoxicity call with HSkMC and with HepG2 was “inactive” in each case. For the same compound, in the test with S. aureus RN4220, the growth inhibition call is “inactive”.
For the compound `O=C(C[C@@H]1C=C[C@H](NC(=O)CN2CCOCC2)[C@H](CO)O1)NCCc1ccncc1`, the cytotoxicity call in the test with HSkMC and in the test with HepG2 was “inactive” in each case. In addition, the growth inhibition call with S. aureus RN4220 was “inactive”.
For the compound `C=CCN1C[C@@]23C=C[C@@H](O2)[C@@H](C(=O)O)C3C1=O` (stereo partly drawn), the cytotoxicity call in the test on HSkMC and in the test with HepG2 was “inactive” in each case. Besides, the growth inhibition call in the test with S. aureus RN4220 is “inactive”.
Consider `C[C@@H]1CN([C@@H](C)CO)C(=O)c2cc(NS(=O)(=O)c3ccc(F)cc3)ccc2O[C@@H](C)CCCCO[C@H]1CN(C)Cc1ccc2c(c1)OCO2`, for which the cytotoxicity call in the test with HSkMC and in the test with HepG2 was “inactive” each time. Moreover, the growth inhibition call in the test with S. aureus RN4220 is “inactive”.
With `CCS(=O)(=O)N[C@H]1C=C[C@@H](CC(=O)O)O[C@@H]1CO`, the cytotoxicity call with HSkMC and in the test with HepG2 was “inactive” throughout. In addition, the growth inhibition call in the test with S. aureus RN4220 is “inactive”.
As for `CC(C)CC#Cc1ccc2c(c1)O[C@H](CN(C)S(=O)(=O)c1cccc(F)c1)[C@H](C)CN([C@@H](C)CO)S2(=O)=O`, in the test on HSkMC, the cytotoxicity call is “inactive”. In the test with HepG2, the cytotoxicity call is “active”. Further, in the test on S. aureus RN4220, the growth inhibition call is “inactive”.
For `C[C@@H]1CN([C@H](C)CO)C(=O)c2cc(C#Cc3ccc(F)cc3)cnc2O[C@@H]1CN(C)CC1CCOCC1`, the cytotoxicity call in the test on HSkMC (human skeletal muscle cells) and in the test with HepG2 was “inactive” throughout. For the same compound, the growth inhibition call in the test on S. aureus RN4220 was “inactive”.
On to `O=C(C[C@H]1CC[C@H]2[C@@H](COC[C@@H](O)CN2S(=O)(=O)c2ccc(Oc3ccccc3)cc2)O1)NCCN1CCCCC1`, for which the cytotoxicity call in the test with HSkMC and with HepG2 was “inactive” each time. Moreover, in the test with S. aureus RN4220, the growth inhibition call is “inactive”.
